Measured values from the supplement of paper PMC10126150.
Sequences with one replicate were seen in a single cluster, so their values are uncertain.

tested on: ATP; experiment: switch fluorescence ratio, 500 uM ATP over buffer (Cy3 cluster intensity, sum of 5 cycles each) (fold (ratio)); higher = stronger signal-on switching upon ATP binding; sequences stand for … in TCGTCGGCAGCGTCAGATGTGTATAAGAGACAGTTTTTTTTTTTTTTTTTTTTTTTTT…TC; details: aptamer strand: ATP DNA aptamer (quencher-CACCTGGGGGAGTATTGCGGAGGAAGG + anchor), 100 nM annealed; ATP concentration: 500 uM; one replicate
Procedure, shortened: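 Per cluster, summed Cy3 intensity from the target cycles was divided by that from the buffer cycles to give the fluorescence ratio, then averaged per switch-domain sequence. Clusters outside 100-1000 RFU were excluded. The Cy3-labelled switching-strand clusters, on a modified Illumina MiSeq flow-cell, were annealed to 100 nM quencher-labelled ATP aptamer and imaged in selection buffer, then after 15 min with 500 uM ATP at 22 °C, for five cycles with NaOH stripping and re-annealing between them.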
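Note: ATP exposure 15 min at 22 °C before imaging.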

Sequence | switch fluorescence ratio
CGAGGCTGAC | 1.56
CGAGGGATAT | 1.12
CGAGGGCGAA | 1.03
CGAGGGGCGA | 1.03
CGAGGTAAAC | 1.63
CGAGGTTCGC | 0.984
CGAGTACACT | 1.06
CGAGTAGGCA | 1.08
CGAGTCAGCC | 1.02
CGAGTCTGCG | 0.974
CGAGTGAGCG | 0.96
CGAGTGCAGG | 0.973
CGAGTGCTAG | 1.04
CGAGTGGCTC | 1.03
CGAGTGTGGA | 1.06
CGAGTGTGTC | 1.06
CGAGTTGTAG | 1.01
CGATAACTCG | 0.998
CGATACGTCC | 1.05
CGATAGAGAA | 1.01
CGATCCCCCC | 1.14
CGATCCCGAC | 1.05
CGATCCGCCT | 1.08
CGATCCGGAG | 1.1
CGATCCGGGG | 0.966

Sequence | switch fluorescence ratio
CGATGAGGAC | 0.937
CGATGCGGTT | 1.02
CGATGGCCGA | 1.03
CGATGGCTAT | 1.09
CGATGTGGAC | 1.43
CGATGTTGTT | 0.961
CGATTAATTT | 0.982
CGATTGGGGA | 1
CGATTGTGAC | 1.05
CGATTGTGCT | 0.936
CGATTGTGTC | 0.926
CGATTTGGCT | 1.01
CGCAAAGGTC | 2.54
CGCAACAGTA | 1.08
CGCAACTATT | 1.93
CGCAAGGAGT | 1
CGCAAGTCCT | 1.49
CGCAATAACT | 1.76
CGCAATTCGT | 5.32
CGCACCTGGA | 1.06
CGCACGACCT | 2.3
CGCACGATCC | 1.86
CGCACGGGCG | 1
CGCACGTGAG | 0.94
CGCACTTAGA | 1.13

Sequence | switch fluorescence ratio
CGCAGAATTT | 1.04
CGCAGCATAT | 3.42
CGCAGGAGGA | 1.06
CGCAGGCCCG | 1.11
CGCAGGTTTC | 1.09
CGCAGTTGAG | 1.09
CGCAGTTTGG | 1.03
CGCATAAACC | 2.87
CGCATAAGGT | 1.13
CGCATCAGAT | 1.01
CGCATCCTTC | 1.48
CGCATCGCCG | 1.09
CGCATTCAGT | 1.13
CGCATTGTGT | 1.1
CGCATTGTTG | 1.04
CGCATTTATG | 0.985
CGCCAAGGCG | 1.02
CGCCAATTGG | 0.96
CGCCACAAGT | 1.12
CGCCAGTTGT | 1.13
CGCCATCCTG | 1.06
CGCCCCGGCT | 0.992
CGCCCGGGGA | 1.03
CGCCCTAGTA | 1.03
CGCCCTCACA | 1.17

Sequence | switch fluorescence ratio
CGCCCTCCGG | 1.62
CGCCCTGAGC | 0.994
CGCCGAACGA | 1.03
CGCCGACTT | 1.01
CGCCGCTGGA | 1.41
CGCCGGACCT | 1.01
CGCCGGATAT | 1.13
CGCCGGGGTA | 1
CGCCGTAATC | 2.43
CGCCGTGATC | 1.16
CGCCGTGGGA | 1.02
CGCCGTGTAC | 2.6
CGCCTGAAGA | 1.03
CGCCTGCCGT | 1
CGCCTGGAGC | 1.14
CGCCTTGGTA | 1.01
CGCCTTTGCG | 1
CGCGAAAAAC | 1.04
CGCGAAACCG | 1.01
CGCGAAATAA | 1.02
CGCGACTGCC | 1.21
CGCGATGAG | 1.15
CGCGCACTGA | 1.08
CGCGCAGGTC | 1.2
CGCGCCGACC | 1.18

Sequence | switch fluorescence ratio
CGCGCGCTTT | 1.06
CGCGCGTCT | 0.999
CGCGCGTCTT | 1.02
CGCGGACCCT | 1.11
CGCGGAGAAC | 1.08
CGCGGGGGAA | 1.05
CGCGGGTGC | 1.16
CGCGGTATGA | 0.981
CGCGGTGGTG | 1.02
CGCGGTGTTA | 1.07
CGCGTCCAAA | 0.969
CGCGTCGAAG | 1
CGCGTCTCAA | 1.04
CGCGTGTTTT | 1.05
CGCGTTGAAG | 1.02
CGCGTTTGTC | 1.07
CGCTAAGAGT | 1.05
CGCTAAGTGG | 1.07
CGCTACCAAC | 1.78
CGCTACGTCC | 1.19
CGCTACTGTG | 1.04
CGCTAGACTA | 1.66
CGCTAGGCTC | 1.97
CGCTAGTACC | 1.77
CGCTCATCCG | 1.06

Sequence | switch fluorescence ratio
CGCTCCGGTG | 1.04
CGCTCGGACC | 1.1
CGCTGACCAG | 0.999
CGCTGCATCT | 1.1
CGCTGCCACG | 0.994
CGCTGCCCCT | 1.03
CGCTGCGTCG | 0.975
CGCTGGAATG | 1.04
CGCTGGGCCC | 1.14
CGCTGGGGAA | 1.02
CGCTGGTCGG | 1.02
CGCTGGTGTG | 0.99
CGCTGTAAAT | 1.03
CGCTGTGCCT | 0.962
CGCTTGACGC | 1.01
CGCTTGTAGT | 1.03
CGCTTGTATG | 0.98
CGCTTTGGCT | 0.974
CGCTTTTGAC | 1.51
CGCTTTTGTA | 1.04
CGGAAAACGA | 0.989
CGGAAACAAG | 1.01
CGGAACCCGC | 1.06
CGGAAGCGCA | 1.04
CGGAAGGGTT | 1.02

Sequence | switch fluorescence ratio
CGGAAGTGGA | 1
CGGAATCCGT | 0.95
CGGAATGTGG | 0.943
CGGACACGTA | 1.01
CGGACAGGAC | 1.47
CGGACCACGT | 1.01
CGGACCAGAA | 1.06
CGGACCTCT | 0.952
CGGACGGGCC | 0.959
CGGACGGGGT | 0.984
CGGAGAACAT | 0.987
CGGAGGAGGT | 1
CGGAGGATGT | 1.03
CGGAGGATT | 1.02
CGGAGGGCTC | 1.03
CGGAGTATAG | 1.73
CGGAGTCGA | 1.17
CGGATCAGCG | 1
CGGATCAGTA | 1.02
CGGATGCC | 1.06
CGGATGCGTA | 1.04
CGGATGGGTT | 0.963
CGGATGTGCT | 0.963
CGGATTAAGG | 1.01
CGGCACACCA | 1.1

Sequence | switch fluorescence ratio
CGGCATATGA | 1.09
CGGCATCGCC | 1.02
CGGCATTGGT | 1.05
CGGCCAGGCA | 0.969
CGGCCGGGTA | 0.954
CGGCCTAGGC | 1
CGGCCTGTGA | 1.05
CGGCGAAT | 0.961
CGGCGCAGGA | 1.09
CGGCGCAGT | 1.22
CGGCGCGTAT | 1.02
CGGCGGCCAC | 0.963
CGGCGGTAGC | 0.94
CGGCTAAG | 1.02
CGGCTAGACC | 1.08
CGGCTAGGGA | 0.982
CGGCTGCTTA | 1.04
CGGCTTTAGG | 0.995
CGGCTTTGGC | 0.941
CGGGAACGTA | 0.97
CGGGAAGCGT | 0.949
CGGGACGGAT | 1
CGGGAGGCGA | 0.947
CGGGAGTAGC | 0.989
CGGGATAACC | 1.04
